{"source": "paper PMC6919601", "about": "“Identification of Plasmodium dipeptidyl aminopeptidase allosteric inhibitors by high throughput screening” (PLoS ONE, 2019)", "note": "About 230 (0.21%) of roughly 110,000 compounds showed an effect of 50% or more. The list shows a part of the results. Where a SMILES comes first, the peptide text is derived from it.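 Further: 30 min substrate incubation versus DMSO and 10 µM JCP410 controls.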", "data": [{"molecular_target": "DPAP1 (Plasmodium falciparum, UniProt Q8IIJ9)", "sequence (Q8IIJ9 whole entry, looked up)": "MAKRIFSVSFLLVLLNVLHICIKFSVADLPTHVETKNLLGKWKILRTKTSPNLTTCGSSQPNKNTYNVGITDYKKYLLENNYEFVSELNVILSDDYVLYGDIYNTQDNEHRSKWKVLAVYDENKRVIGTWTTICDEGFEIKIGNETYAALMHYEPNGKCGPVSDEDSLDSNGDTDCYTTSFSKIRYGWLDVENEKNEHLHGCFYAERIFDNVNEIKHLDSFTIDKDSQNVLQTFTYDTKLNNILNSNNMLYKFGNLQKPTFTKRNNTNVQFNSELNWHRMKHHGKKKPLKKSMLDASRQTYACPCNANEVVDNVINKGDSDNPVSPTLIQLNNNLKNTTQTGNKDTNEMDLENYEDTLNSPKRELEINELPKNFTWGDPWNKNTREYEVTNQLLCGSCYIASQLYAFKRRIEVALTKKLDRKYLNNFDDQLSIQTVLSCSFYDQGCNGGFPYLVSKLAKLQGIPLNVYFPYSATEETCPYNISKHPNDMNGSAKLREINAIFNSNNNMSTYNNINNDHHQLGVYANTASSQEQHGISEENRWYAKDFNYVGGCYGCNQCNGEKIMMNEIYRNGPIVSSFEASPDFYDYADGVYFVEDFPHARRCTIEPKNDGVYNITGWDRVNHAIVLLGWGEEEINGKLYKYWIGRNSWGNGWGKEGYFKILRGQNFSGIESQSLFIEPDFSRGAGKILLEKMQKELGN", "assay": "primary screen, percent inhibition; read by cleavage of a fluorogenic dipeptide substrate; higher = more effect of the substance", "parameters": "species or system P. falciparum D10 trophozoite lysates; single well", "units": {"% Inhibition @ 10 uM": "%"}, "values": [{"molecule": "O=C(CN1C(=O)c2cccc3cccc1c23)Nc1ccccc1C(F)(F)F", "% Inhibition @ 10 uM": 6.79}, {"molecule": "CCCCc1nn2c(C)c(-c3ccc(C)cc3)nc2s1", "% Inhibition @ 10 uM": 2.41}, {"molecule": "Nc1nc(SCc2ccc(C(=O)NCCO)cc2)nc2sc3c(c12)CCCC3", "% Inhibition @ 10 uM": 0.146}, {"molecule": "CC(=O)Nc1ccc(NC(C)=O)c(C(C)(C)C)c1", "% Inhibition @ 10 uM": 2.76}, {"molecule": "C=CCOc1ccc(/C=C2\\C(=O)NC(=O)N(CC=C)C2=O)cc1OC", "% Inhibition @ 10 uM": 0.997}, {"molecule": "O=C(/C=C/c1ccccc1)Nc1cc(Cl)ccc1Cl", "% Inhibition @ 10 uM": -4.94}, {"molecule": "COCCCNC(=O)CNC(=O)Cn1ccc2ccccc2c1=O", "% Inhibition @ 10 uM": -0.972}, {"molecule": "COc1cc(C2C3=C(CCCC3=O)OC3=C2C(=O)CCC3)ccc1OCc1ccccc1", "% Inhibition @ 10 uM": 0.736}, {"molecule": "CCOC(=O)N1CCC(NC(=O)c2cc(S(=O)(=O)NCCc3ccccc3)ccc2F)CC1", "% Inhibition @ 10 uM": 3.04}, {"molecule": "COc1ccc(/C=C(\\NC(=O)c2cccc(Br)c2)C(=O)NCCO)cc1", "% Inhibition @ 10 uM": -8.72}, {"molecule": "O=C(O)CNC(=O)C(Cc1ccccc1)NC(=O)OCc1ccccc1", "note": "(stereo not drawn) (HELM PEPTIDE1{[O=C(OCc1ccccc1)[*:2]].[O=C(C(Cc1ccccc1)N[*:1])[*:2]].G}$$$$V2.0)", "% Inhibition @ 10 uM": -3.64}, {"molecule": "COc1ccc(N2CN=C3SC(CO)(CO)C(=O)N3C2)cc1", "% Inhibition @ 10 uM": 3.05}, {"molecule": "CC(C)CN1C(=O)c2ccccc2C(C(=O)Nc2cccnc2)C1c1cccs1", "note": "(stereo not drawn)", "% Inhibition @ 10 uM": -0.825}, {"molecule": "CCc1ccc(Oc2nc3c(C)cccn3c(=O)c2/C=C(\\C#N)C(=O)NC)cc1", "% Inhibition @ 10 uM": 2}, {"molecule": "O=C(c1csc2c1CCCC2)N1CCN(c2ccc(F)cc2)CC1", "% Inhibition @ 10 uM": 0.992}, {"molecule": "CC1(C)CC(=O)C2=C(C1)N(c1nc[nH]n1)C(N)=C(C#N)C2c1ccccc1C(F)(F)F", "note": "(stereo not drawn)", "% Inhibition @ 10 uM": -0.105}, {"molecule": "CCOc1ccc(C(C)(C)C)cc1S(=O)(=O)n1c(C)nc2ccccc21", "% Inhibition @ 10 uM": 0.627}, {"molecule": "CCn1c2ccccc2c2cc(CN3CCCCC3)ccc21", "% Inhibition @ 10 uM": -6.62}, {"molecule": "O=[N+]([O-])c1ccc(N2CCCCCC2)c2nonc12", "% Inhibition @ 10 uM": -2.44}, {"molecule": "CCOC(=O)C(=O)Nn1cnnc1", "% Inhibition @ 10 uM": 4.86}, {"molecule": "CCCc1cc(O)nc(SC/C=C/c2ccccc2)n1", "% Inhibition @ 10 uM": -5.32}, {"molecule": "O=C(Nc1cccnc1)c1cccc(C(=O)Nc2cccnc2)c1", "% Inhibition @ 10 uM": 5.08}, {"molecule": "O=C(Nc1cnn(Cc2ccc(F)cc2)c1)C12CC3CC(CC(C3)C1)C2", "% Inhibition @ 10 uM": 6.15}, {"molecule": "Cn1c(-c2ccccc2)c(C=O)c2ccccc21", "% Inhibition @ 10 uM": -0.053}, {"molecule": "CN(C)CCNC(=O)c1cc2c(s1)-c1ccccc1SC2", "% Inhibition @ 10 uM": -5.89}, {"molecule": "CC(C)CC(=O)Nc1cccc(NC(=O)CC(C)C)c1", "% Inhibition @ 10 uM": 0.993}, {"molecule": "CCOC(=O)c1cc(-c2ccccc2)sc1NC(=O)CCN1CCOCC1", "% Inhibition @ 10 uM": -3.21}]}]}
